{"source": "PubChem BioAssay AID1476", "about": "(National Center for Advancing Translational Sciences (NCATS), 2009)", "note": "“And” between values parts separate entries of the source, which are not always exact repeats. Equal entries are not always repeated. The whole screen tested about 200,000 compounds, of which about 4,500 (2.2%) were called active. Inconclusive results, whose numbers are uncertain, are shown with a selection of clear calls. Calls follow the shape of the dose curve; as a rule, active = well fitted inhibition curve with a large enough effect; inconclusive = small, poorly fitted or top-dose-only effect, or effect the other way; inactive = flat fitted curve, though single readings scatter. Where the call is inconclusive, the potency comes from a doubtful curve fit. Potency is read from the fitted curve at half-maximal effect; tags tell the direction and shape of the fitted curve.", "data": [{"target": "Cruzipain (Trypanosoma cruzi) (UniProt P25779)", "sequence (P25779 whole entry, looked up)": "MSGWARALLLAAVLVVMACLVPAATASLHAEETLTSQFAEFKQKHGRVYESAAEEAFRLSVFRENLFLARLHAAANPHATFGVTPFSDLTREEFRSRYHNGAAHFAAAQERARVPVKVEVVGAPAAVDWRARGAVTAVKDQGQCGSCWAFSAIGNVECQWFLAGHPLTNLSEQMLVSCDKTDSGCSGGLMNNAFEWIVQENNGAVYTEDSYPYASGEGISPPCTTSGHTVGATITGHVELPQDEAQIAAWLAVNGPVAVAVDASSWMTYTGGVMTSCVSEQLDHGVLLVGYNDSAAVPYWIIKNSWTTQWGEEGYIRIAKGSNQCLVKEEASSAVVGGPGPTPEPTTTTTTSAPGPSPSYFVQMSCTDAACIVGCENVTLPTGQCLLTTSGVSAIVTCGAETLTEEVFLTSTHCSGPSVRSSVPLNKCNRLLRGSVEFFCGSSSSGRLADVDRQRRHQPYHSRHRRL", "assay": "qHTS Assay for Promiscuous and Specific Inhibitors of Cruzain (without detergent); also: nearly all actives have a fitted effect of over 40% in size;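 as to max response, negative = inhibition: plate controls were enzyme without inhibitor for no effect and buffer without enzyme for full effect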", "details": "purified cruzain, Z-FR-AMC fluorescence, no detergent", "summary_of_the_method": "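Purified cruzain at 1.5 nM, pre-incubated 15 min with compound at room temperature in 100 mM sodium acetate pH 5.5, 5 mM DTT, 0.00005% Triton X-100. Reaction started with 2 uM Z-FR-AMC; AMC fluorescence increase over 60 s gives rate.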", "values": [{"smiles": "Cc1ccc(-c2nc3cc(NC(=O)Cc4ccc(Cl)cc4)ccc3o2)cc1", "Potency": "inconclusive: 6.31 µM [inhibitor, single point]"}, {"smiles": "Cc1ccccc1Oc1nc2ccccn2c(=O)c1/C=C(\\C#N)C(=O)Nc1c(C)n(C)n(-c2ccccc2)c1=O", "Potency": "inconclusive: 39.8 µM [activator, single point]"}, {"smiles": "CCc1ccc(NC(=O)Cn2c(=O)n(CCCC(=O)NCc3ccccc3Cl)c(=O)c3ccccc32)cc1", "max response, negative = inhibition": "inactive: -8.64%"}, {"smiles": "COc1ccc(-c2noc(C3CCCN(S(=O)(=O)c4cccc(Cl)c4C)C3)n2)cc1OC", "note": "(stereo not given)", "Potency": "inconclusive: 39.8 µM [activator, single point]"}, {"smiles": "Cc1ccc(-n2c(Cc3ccccc3)nnc2SCC(=O)NNC(=O)Cc2ccccc2)cc1", "Potency": "inconclusive: 39.8 µM [activator, single point]"}, {"smiles": "Cc1cccc(C)c1OCC(=O)N/N=C/c1cccn1C", "max response, negative = inhibition": "inactive: -9.4%"}, {"smiles": "Cc1ccc(N(CC(O)Cn2c3ccccc3c3ccccc32)S(=O)(=O)c2ccc(F)cc2)cc1", "note": "(stereo not given)", "max response, negative = inhibition": "inactive: 8.23%"}, {"smiles": "O=C(COc1ccc(-c2ccccc2)cc1)N1CCN(C(=O)c2cccnc2)CC1", "Potency": "inconclusive: 39.8 µM [activator, single point]"}, {"smiles": "COc1ccc(C(=O)Nc2nc(N3C(=O)c4ccccc4C3=O)n(-c3ccccc3)n2)cc1", "max response, negative = inhibition": "inactive: 6.77%"}, {"smiles": "CCc1ccc(NC(=O)CN2C(=O)C3CCCN3c3ccc(S(=O)(=O)N(CC)CC)cc32)cc1", "note": "(stereo not given)", "Potency": "inconclusive: 39.8 µM [activator, single point]"}, {"smiles": "CSc1ccccc1NC(=O)CN(Cc1ccc(Cl)cc1)S(C)(=O)=O", "Potency": "inconclusive: 25.1 µM [activator, single point]"}, {"smiles": "COc1cc2c(cc1OC)C(c1ccc(Cl)cc1)N(c1cccc(C#N)c1)C(=O)C2", "note": "(stereo not given)", "Potency": "inconclusive: 31.6 µM [activator, single point]"}, {"smiles": "Cc1cc(C)c(S(=O)(=O)n2ccc(-c3ccc(OCCN(C)c4ccccn4)cc3)n2)c(C)c1", "Potency": "inconclusive: 31.6 µM [inhibitor, single point]"}, {"smiles": "COc1cc2c(cc1OC)-c1c(OC)c(OC)cc3c1C(C2)N(C)CC3", "note": "(stereo not given)", "Potency": "inconclusive: 39.8 µM [activator, single point]"}, {"smiles": "COc1cccc(NC(=O)Cn2c(=O)n(-c3ccccc3)c(=O)c3ccc(C(=O)NCc4ccc5c(c4)OCO5)cc32)c1", "Potency": "inconclusive: 25.1 µM [inhibitor, single point]"}, {"smiles": "CC1CCC(NC(=O)c2ccc(CNc3c(NC4CCCCC4)c(=O)c3=O)cc2)CC1", "note": "(stereo not given)", "Potency": "inconclusive: 39.8 µM [inhibitor, single point]"}, {"smiles": "CC(=O)N1CCc2c(sc3c2c(=O)n(CCc2ccccc2)c(=O)n3CC(=O)Nc2ccccc2F)C1", "Potency": "inconclusive: 39.8 µM [activator, single point]"}, {"smiles": "COc1cccc([C@@H]2Oc3ccc(Br)cc3C[C@H]2OC(=O)N[C@H](C)C2CCCCC2)c1", "max response, negative = inhibition": "inactive: -14.4%"}, {"smiles": "Cn1cc(C(=O)O)c(=O)c2cc(S(=O)(=O)N3CCOCC3)ccc21", "max response, negative = inhibition": "inactive: 2.91%"}, {"smiles": "CCOC(=O)c1c(N)n(Cc2ccc(OC)cc2)c2nc3ccccc3nc12", "Potency": "inconclusive: 25.1 µM [activator, partial curve]"}, {"smiles": "CCOC(=O)N1CCN(CCC(=O)c2ccc(Cl)cc2)CC1", "Potency": "active: 12.6 µM"}, {"smiles": "Nc1c(C(=O)Nc2ccc(C(F)(F)F)cc2)sc2nc(-c3cccs3)ccc12", "Potency": "inconclusive: 25.1 µM [inhibitor, single point]"}, {"smiles": "COc1ccccc1-c1nnc(C2CCN(S(=O)(=O)c3ccc(CC(C)C)cc3)CC2)o1", "Potency": "inconclusive: 25.1 µM [activator, single point]"}, {"smiles": "Cn1nnnc1SCCCNCc1ccccc1OCc1ccc(F)cc1", "max response, negative = inhibition": "inactive: 0.486%"}, {"smiles": "CC(C)(O[C@@H]1O[C@H](CO)[C@@H](O)[C@H](O)[C@H]1O)[C@H]1Cc2cc3ccc(=O)oc3cc2O1", "Potency": "inconclusive: 25.1 µM [inhibitor, single point]"}, {"smiles": "O=c1cc(N2CCc3ccccc3C2)[nH]c(=O)n1-c1ccc(Br)cc1", "Potency": "inconclusive: 39.8 µM [inhibitor, single point]"}, {"smiles": "Cc1cc(C)nc(NC(=O)c2cc(-c3ccc(C)s3)nc3ccccc23)c1", "Potency": "inconclusive: 25.1 µM [inhibitor, single point]"}, {"smiles": "CCOC(=O)N1CCC(N2Cc3cccc(C(=O)Nc4ccc(F)cc4)c3C2=O)CC1", "Potency": "inconclusive: 31.6 µM [activator, single point]"}, {"smiles": "CCc1ccc(N(CC)C(=O)c2sc3nc4n(c(=O)c3c2C)CCCC4)cc1", "Potency": "inconclusive: 39.8 µM [activator, single point]"}, {"smiles": "COC(=O)[C@H](Cc1ccccc1)NC(=O)O[C@@H]1C(=O)c2ccc(OC)cc2O[C@H]1c1cccc(C(F)(F)F)c1", "max response, negative = inhibition": "inactive: 17.3%"}, {"smiles": "COC(=O)c1c(NC(=O)c2ccccc2)sc(Cc2ccccc2)c1C", "Potency": "inconclusive: 31.6 µM [inhibitor, single point]"}, {"smiles": "COC(=O)/C(C#N)=C/c1c(Oc2cc(C)cc(C)c2)nc2c(C)cccn2c1=O", "Potency": "inconclusive: 25.1 µM [activator, single point]"}, {"smiles": "COc1ccc(N(C(=O)c2cccc(C)c2)S(=O)(=O)c2ccc3c(c2)n(C)c(=O)n3C)cc1", "Potency": "inconclusive: 31.6 µM [activator, single point]"}, {"smiles": "CCOC(=O)c1c(NC(=O)c2ccn(CC)n2)sc2c1CCCC2", "Potency": "inconclusive: 31.6 µM [activator, single point]"}, {"smiles": "O=C(CSc1cccc2cccc(Cl)c12)OCC(=O)N1CCN(C(=O)c2ccco2)CC1", "Potency": "inconclusive: 31.6 µM [activator, single point]"}, {"smiles": "CC1CCN(S(=O)(=O)c2cccc(S(=O)(=O)N3CCOCC3)c2)CC1", "Potency": "inconclusive: 39.8 µM [activator, single point]"}, {"smiles": "COc1ccc(C(=O)Nc2ccc3oc(-c4cc(Cl)ccc4Cl)nc3c2)cc1Br", "max response, negative = inhibition": "inactive: 5.85%"}, {"smiles": "Oc1c(/C=N/Nc2cccc3cccnc23)ccc2ccccc12", "Potency": "active: 31.6 µM"}, {"smiles": "O=C(Nc1cccc(Cl)c1Cl)c1cc(S(=O)(=O)N2CCCc3ccccc32)ccc1F", "Potency": "inconclusive: 31.6 µM [inhibitor, single point]"}, {"smiles": "CCCCCCc1ccc(-c2ncc(N)cn2)cc1", "Potency": "inconclusive: 31.6 µM [activator, single point]"}, {"smiles": "O=C(CSc1nc2ccsc2c(=O)n1Cc1ccccc1F)NCc1ccccc1Cl", "max response, negative = inhibition": "inactive: 8.56%"}, {"smiles": "COc1ccc(/C=C/C2=C[C@]3(C)C[C@]2(C)[C@H](c2ccc(OC)cc2)CC3=O)cc1", "max response, negative = inhibition": "inactive: 14.7%"}, {"smiles": "Cc1ccc(C)c(Cn2c(=O)n(-c3ccc(F)cc3)c(=O)c3sc4ccccc4c32)c1", "max response, negative = inhibition": "inactive: 0.0429%"}, {"smiles": "Cc1ccc2c(CSc3nc4nc(C)cc(C)n4n3)cc(=O)oc2c1", "Potency": "inconclusive: 39.8 µM [activator, single point]"}, {"smiles": "CN(C)CCNC(=O)C(=O)NCC(c1cccnc1)N1CCN(c2ccccc2)CC1", "note": "(stereo not given)", "Potency": "inconclusive: 31.6 µM [activator, single point]"}, {"smiles": "O=C(Nc1ccccc1N1CCN(C(=O)c2ccc(Cl)cc2)CC1)c1cc(Br)ccc1Cl", "Potency": "active: 7.94 µM"}, {"smiles": "CCc1nnc(NC(=O)[C@@H]2CCCN2S(=O)(=O)c2ccc3c(c2)OCCO3)s1", "max response, negative = inhibition": "inactive: -6.29%"}, {"smiles": "CS(=O)(=O)N(Cc1ccccc1)c1ccccc1C(=O)O", "max response, negative = inhibition": "inactive: -2.79%"}, {"smiles": "C[C@@H]1[C@H](O)[C@@H](C)/C=C/C=C/C=C/C=C/C=C/C=C/C=C/[C@H](O[C@@H]2O[C@H](C)[C@@H](O)[C@H](N)[C@@H]2O)C[C@@H]2O[C@](O)(C[C@@H](O)C[C@@H](O)[C@H](O)CC[C@@H](O)C[C@@H](O)CC(=O)O[C@H]1C)C[C@H](O)[C@H]2C(=O)O", "Potency": "inconclusive: 7.94 µM [activator, full curve]"}, {"smiles": "COCCNC(=O)c1c(N)sc2c1CCCC2", "Potency": "inconclusive: 39.8 µM [activator, single point]"}, {"smiles": "COc1ccc(/C=N/N=C2/NC(=O)C(c3ccccc3)S2)c(OC)c1", "note": "(stereo not given)", "Potency": "inconclusive: 39.8 µM [inhibitor, single point]"}, {"smiles": "CCn1cc2nc(SCc3cccc(C)c3)n(CCc3ccccc3)c(=O)c2n1", "Potency": "inconclusive: 39.8 µM [activator, single point]"}, {"smiles": "COc1cc2c(cc1NC(=O)COC(=O)c1ccc(C(C)(C)C)cc1)oc1ccccc12", "Potency": "active: 12.6 µM"}, {"smiles": "CCCC(C)C(=O)Nc1cc([N+](=O)[O-])ccc1F", "note": "(stereo not given)", "max response, negative = inhibition": "inactive: -0.761%"}, {"smiles": "CC(C)[C@@H](CC(=O)N[C@@H]1CCCC[C@H]1C(=O)N[C@H](CC(=O)N[C@@H](CCC(=O)O)CC(=O)O)Cc1ccccc1)NC(=O)C[C@H](CO)NC(=O)[C@@H]1CCCC[C@H]1N", "max response, negative = inhibition": "inactive: 3.89%"}, {"smiles": "Cc1c(Cl)cccc1NC(=O)c1ccc(OCC(=O)NCc2ccccc2)cc1", "Potency": "inconclusive: 39.8 µM [inhibitor, single point]"}, {"smiles": "COc1ccc(S(=O)(=O)N(CC(=O)Nc2ccc3c(c2)OCO3)c2ccc(C)cc2)cc1", "Potency": "inconclusive: 25.1 µM [inhibitor, single point]"}, {"smiles": "O=C1Nc2ccccc2/C1=N\\c1sc2c(c1C(=O)Nc1ccccc1)CCCC2", "Potency": "inconclusive: 20 µM [inhibitor, single point]"}, {"smiles": "Cc1[nH]n(-c2ccc(F)cc2)c(=O)c1C=Nc1ccc(S(=O)(=O)N(C)C)cc1", "Potency": "inconclusive: 25.1 µM [activator, partial curve]"}, {"smiles": "COC(=O)[C@@]1(Cc2ccc(OC)cc2)[C@@H]2C(=CC(=O)[C@H]2CC(=O)C(=O)N2CCCC2)CN1C(=O)c1ccccc1", "Potency": "inconclusive: 31.6 µM [activator, partial curve] and inconclusive: 31.6 µM [activator, single point]"}]}]}
